Reference: US20090298813A1, “USE OF NEUROPROTECTIVE COMPOUNDS IN OBTAINING MEDICAMENTS INTENDED FOR THE TREATMENT OF NEURODEGENERATING DISEASES” (LES LABORATOIRES SERVIER, priority 2007, published 2009)

System: mixed (neurons and glia) primary embryonic mesencephalic cultures
Assay: Neuroprotective and neurotrophic effects in an in vitro model of neurodegeneration (epoxomicin)
Conditions: 48 hours

CN1CCC=C(C(=O)Nn2ccc3ccccc32)C1 [Example 2, N-(1H-indol-1-yl)-1-methyl-1,2,5,6-tetrahydropyridine-3-carboxamide]
neuronal survival (neurotrophic) (in the absence of epoxomicin, between 100 nM and 30 μM): doubles
concentrations at which it has neuroprotective properties (in the presence of epoxomicin (50 nM)): greater than or equal to 10 μM
